# According to PubChem BioAssay AID2147 (National Center for Advancing Translational Sciences (NCATS), 2009):
# In all, about 230,000 compounds went through this assay and about 3,600 (1.6%) were called active. The inconclusive results got no clear call from the source; some entries with a clear call stand among them for comparison. The call rests on the fitted dose curve; in most records, active means well fitted inhibition curve with a large enough effect (not every such curve was filed as active); inconclusive means small, poorly fitted or top-dose-only effect, or another doubt; inactive means no such curve, though single readings can be large or run the other way. Where the call is inconclusive, the potency comes from a doubtful curve fit. Where a structure was tested more than once in an assay, its records may differ in their call.
# Molecular target: Lysine-specific demethylase 4E (Homo sapiens) (UniProt B2RXH2)
# Chain of UniProt B2RXH2 (B2RXH2 whole entry, looked up, the tested form may be a part): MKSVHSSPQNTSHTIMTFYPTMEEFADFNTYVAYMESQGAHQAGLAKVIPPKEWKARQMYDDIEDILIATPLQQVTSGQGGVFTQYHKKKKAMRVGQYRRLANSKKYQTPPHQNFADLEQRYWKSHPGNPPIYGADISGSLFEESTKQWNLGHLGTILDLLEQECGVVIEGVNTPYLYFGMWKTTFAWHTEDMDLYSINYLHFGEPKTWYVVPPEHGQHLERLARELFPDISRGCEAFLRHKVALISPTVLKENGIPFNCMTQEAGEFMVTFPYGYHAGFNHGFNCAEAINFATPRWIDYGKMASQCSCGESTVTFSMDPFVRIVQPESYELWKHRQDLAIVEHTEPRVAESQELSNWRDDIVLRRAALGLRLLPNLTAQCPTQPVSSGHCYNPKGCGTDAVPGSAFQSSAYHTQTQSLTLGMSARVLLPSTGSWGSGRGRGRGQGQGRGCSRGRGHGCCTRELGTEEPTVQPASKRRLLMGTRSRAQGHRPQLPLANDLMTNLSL
# Assay: qHTS Assay for Inhibitors of Human Jumonji Domain Containing 2E (JMJD2E)
# Settings: JMJD2E catalytic domain, FDH-coupled NADH fluorescence (FDH is formaldehyde dehydrogenase); series mostly up to 57.1 µM
# Further: nearly all actives have a fitted effect of over 50% in size.
# Potency means the concentration at half of the fitted maximal effect; tags describe the fitted curve by direction and shape.
row,SMILES,Potency
1,Cc1ccc(S(=O)(=O)N(C)C)cc1NC(=O)COC(=O)c1sc2cc(Cl)ccc2c1Cl,"inconclusive: 39.8 µM [inhibitor, single point]"
2,CC(=O)Nc1ccc(NC(=O)c2ccc(NS(=O)(=O)c3cc(C(C)(C)C)cc(C)c3C)cc2)cc1,"inconclusive: 31.6 µM [inhibitor, single point]"
3,COc1ccc(-c2oc3c(OC)c(OC)c(OC)c(O)c3c(=O)c2OC)cc1OC,"inconclusive: 35.5 µM [inhibitor, single point]"
4,Oc1ccc(CNc2ccc(F)cc2)c2cccnc12,active: 7.94 µM
5,N#Cc1nc(-c2cccs2)oc1NCCc1ccccc1,"inconclusive: 31.6 µM [inhibitor, partial curve]"
6,COc1cc(C(=S)N2CCCCC2)ccc1O,inactive
7,COc1ccc(-n2cc(-c3ccc(Cl)cc3)[nH]c2=S)cc1,inactive
8,CN(C)C(=O)COc1ccc2cc(-c3ccccc3)c(=O)oc2c1,"inconclusive: 14.1 µM [inhibitor, partial curve]"
9,CCCCc1c(C)c(C#N)c2[nH]c3ccccc3n2c1=O,"inconclusive: 28.2 µM [inhibitor, partial curve]"
10,O=C(NCc1ccccc1)c1onc(CSc2ccc(Cl)cc2)c1C(=O)NCc1ccccc1,inactive
11,Cc1ccnc(SCC(=O)c2cccc([N+](=O)[O-])c2)n1,inactive
12,N#Cc1cc(-c2ccccc2)cnc1Sc1ccc(Cl)cc1,"inconclusive: 35.5 µM [inhibitor, single point]"
13,CSc1nc2ccc(NC(=O)c3ccco3)cc2s1,inactive
14,O=C(CN1CCc2[nH]c3ccccc3c2C1)N1CCCCC1,"inconclusive: 7.94 µM [inhibitor, full curve]"
15,Cc1c(-c2ccc(F)cc2)nc(N)c(C#N)c1-c1ccco1,"inconclusive: 17.8 µM [inhibitor, partial curve]"
16,COc1ccc(-c2ccc(C#N)c(SCC(=O)OCc3ccccc3)n2)cc1OC,"inconclusive: 25.1 µM [inhibitor, partial curve]"
17,O=C(O)CSc1cccc[n+]1[O-],inactive
18,O=C(CCSc1ccccc1)N1CCN(c2ccccc2)CC1,inactive
19,CCOC(=O)C1=C(C)NC(=O)NC1c1ccc(Br)o1 (stereo not drawn),inactive
20,O=C1C=C(Nc2ccccc2O)c2ccccc2C1=O,"inconclusive: 28.2 µM [inhibitor, single point]"
21,O=C(Cn1nnc(-c2ccccc2Cl)n1)N/N=C/c1ccc(-c2cccc(Cl)c2)o1,"inconclusive: 25.1 µM [inhibitor, partial curve]"
22,COc1ccc(CCNc2cc(C)nc3c(-c4ccc(Cl)cc4)cnn23)cc1OC,"inconclusive: 22.4 µM [inhibitor, partial curve]"
23,COc1ccc(-c2nc3c(c4nnc(SC(C)C(=O)Nc5ccccc5)n24)COC(C)(C)C3)cc1 (stereo not drawn),"inconclusive: 25.1 µM [inhibitor, partial curve]"
24,Cc1ccc(C2(C)NC(=O)N(CC(=O)NCCC3=CCCCC3)C2=O)cc1 (stereo not drawn),inactive
25,COc1cc(S(=O)(=O)N2CCOCC2)ccc1NC(=O)COC(=O)CC12CC3CC(CC(C3)C1)C2,inactive

row,SMILES,Potency
1,CCCc1cc(=O)n2c(nc3ccccc32)[nH]1,"inconclusive: 28.2 µM [inhibitor, partial curve]"
2,N#C/C(=N/Nc1ccc(S(=O)(=O)N2CCOCC2)cc1)C(N)=O,inactive
3,CCOc1ccc(NC(=O)C2CCCN2C(=O)OCc2ccccc2)cc1 (stereo not drawn),"inconclusive: 39.8 µM [inhibitor, single point]"
4,COc1ccc(O)c(/C=N/NC(=O)c2ccc(CSc3nc(C)cc(C)n3)cc2)c1,"inconclusive: 31.6 µM [inhibitor, single point]"
5,COC(=O)c1ccc(NC(=O)c2snnc2-c2ccccc2)cc1,"inconclusive: 25.1 µM [inhibitor, single point]"
6,COc1ccc2c3c(cccc13)C(=O)N(O)C2=O,"inconclusive: 28.2 µM [inhibitor, partial curve]"
7,CCC(C)C(=O)O[C@H]1C[C@@H](C)C=C2C=C[C@H](C)[C@H](CC[C@@H]3C[C@@H](O)CC(=O)O3)C21 (stereo partly drawn),inactive
8,N#CC1=C(N)Oc2cc(N)ccc2C1c1cccnc1 (stereo not drawn),inactive
9,COc1ccc(OC)c(C2=NO[C@@H]3C(=O)N(c4cc(Cl)ccc4OC)C(=O)[C@H]23)c1,"inconclusive: 35.5 µM [inhibitor, single point]"
10,FC(F)(F)c1cc(-c2ccco2)nc(-n2nnc3ccccc32)n1,"inconclusive: 4.47 µM [inhibitor, partial curve]"
11,CCn1cc(C(=O)N2CCCc3ccccc32)c2cc(OC)c(OC)cc2c1=O,"inconclusive: 35.5 µM [inhibitor, single point]"
12,COc1ccc(OCC(=O)NC(=S)N2CCCc3ccccc32)cc1,"inconclusive: 22.4 µM [inhibitor, single point]"
13,CN(C(=O)c1sc2nc(N3CCOCC3)c3c(c2c1N)CCCC3)c1ccccc1,"inconclusive: 35.5 µM [inhibitor, partial curve]"
14,COC(=O)c1ccc(-c2ccc(/C=N/N3C(=O)C4C5C=CC(CC5)C4C3=O)o2)cc1 (stereo not drawn),"inconclusive: 39.8 µM [inhibitor, single point]"
15,CC(C)(Oc1ccc(Cl)cc1)C(=O)N1CCN(c2ccccn2)CC1,"inconclusive: 25.1 µM [inhibitor, single point]"
16,O=C(NO)c1ccc(C(=O)N(C2CCCCC2)C2CCCCC2)cc1,"inconclusive: 39.8 µM [inhibitor, single point]"
17,CC1CN(Cc2csc(-c3ccc(Cl)cc3)n2)CC(C)O1 (stereo not drawn),"inconclusive: 31.6 µM [inhibitor, single point]"
18,O=C1C2C3CCC(C3)C2C(=O)N1Cc1ccco1 (stereo not drawn),inactive
19,Cc1cc(-c2ccccc2)nc2cc(C(=O)NCc3ccco3)nn12,"inconclusive: 28.2 µM [inhibitor, partial curve]"
20,O=C(Nc1ccc(Cl)cc1)c1cc2nc(C3CC3)cc(C(F)(F)F)n2n1,"inconclusive: 35.5 µM [inhibitor, partial curve]"
21,CC(=O)C(C)Oc1cc(C)cc2oc(=O)c(C)c(C)c12 (stereo not drawn),"inconclusive: 3.55 µM [inhibitor, full curve]"
22,CCOC(=O)c1cnn2c(C(F)(F)F)cc(-c3cn(C)nc3C)nc12,"inconclusive: 31.6 µM [inhibitor, partial curve]"
23,CC1Cc2ccccc2N1c1ncnc2c1nnn2Cc1ccccc1 (stereo not drawn),"inconclusive: 35.5 µM [inhibitor, partial curve]"
24,Cc1cc(NC(=O)CN2C(=O)NC(C)(c3ccccc3)C2=O)no1 (stereo not drawn),inactive
25,COc1ccc(-n2c(Cc3cccn3C)nnc2SCC(=O)Nc2ccc3c(c2)OCO3)cc1,inactive

row,SMILES,Potency
1,Cc1cc([C@](C)(N)C(=O)O)ccc1P(=O)(O)O,inactive
2,COc1ccc(C(=O)Nc2ccc(-c3nnn(CC(=O)NCc4ccco4)n3)cc2)cc1,"inconclusive: 10 µM [inhibitor, partial curve]"
3,O=C(O)c1cn(Cc2ccccn2)c(=O)c2ccccc12,"inconclusive: 31.6 µM [inhibitor, partial curve]"
4,Cc1c2c(nc3c(C(=O)NC4CC4)cnn13)CCCC2,inactive
5,COC(=O)CN1C(=O)C(C)=C(c2ccc(C)cc2)S1(=O)=O,"inconclusive: 35.5 µM [inhibitor, partial curve]"
6,Cn1c(=O)c2c(nc(CN3CCN(Cc4ccccc4)CC3)n2Cc2ccc(Cl)cc2)n(C)c1=O,inactive
7,CCCC1C(C#N)=C(N)Oc2n[nH]c(C(C)(C)C)c21 (stereo not drawn),inactive
8,Nc1ccc(N2CCCCC2)c2nonc12,inactive
9,O=C1CCN2C=Nc3cccc4ccc1c2c34,"inconclusive: 35.5 µM [inhibitor, single point]"
10,CC(N)=O,inactive
11,CCOC(=O)c1c(O)c2ccccc2n(CC)c1=O,"inconclusive: 39.8 µM [inhibitor, single point]"
12,CC(Oc1ccc(Cl)cc1Cl)C(=O)NNC(=O)C(=O)N1CCCCC1 (stereo not drawn),inactive
13,O=c1c2[nH]c3ccccc3c2nc2n1CCCS2,"inconclusive: 35.5 µM [inhibitor, single point]"
14,Cc1cc(NC(=O)c2cc3nc4c(c(C(F)(F)F)n3n2)CCc2ccccc2-4)no1,"inconclusive: 2.51 µM [inhibitor, partial curve]"
15,CCOC(=O)c1nn(-c2ccc(C)cc2)c(=O)c2c(N)scc12,"inconclusive: 1.41 µM [inhibitor, full curve, poor fit]"
16,CCN(CC(=O)NCc1ccc(F)cc1)Cc1nc2cc(Cl)ccc2c(=O)[nH]1,inactive
17,Cc1ccc(C(=O)NCC2CCCO2)cc1[N+](=O)[O-] (stereo not drawn),inactive
18,O=C(Cc1cc(=O)[nH][nH]1)N/N=C/c1cccc(Cl)c1Cl,active: 3.98 µM
19,O=C(NCc1ccccc1Cl)C1CCN(c2cnccn2)CC1,"inconclusive: 25.1 µM [inhibitor, single point]"
20,CCn1c2ccccc2c2cc(/C=N/n3cnnc3)ccc21,"inconclusive: 28.2 µM [inhibitor, partial curve]"
21,CCCn1c(=O)[nH]c(=O)c2c1nc(-c1ccccc1OC(F)F)n2CCOC,"inconclusive: 25.1 µM [inhibitor, partial curve]"
22,Cc1ccc(-c2nc(C3CCN(S(=O)(=O)c4ccc(C(F)(F)F)cc4)CC3)no2)cc1,"inconclusive: 39.8 µM [inhibitor, single point]"
23,CCN(CC)S(=O)(=O)c1cccc(-c2nnc(SCC(N)=O)n2CCc2ccccc2)c1,inactive
